Laboratory results taken from a compilation of properties of binary mixtures (doi:10.1021/je7001804).
Some of these densities may be calculated back from excess volumes.

Test: xn = mol fraction of the nth substance listed
Details: 101 kPa

CC[n+]1ccn(C)c1.O=S(=O)([O-])C(F)(F)F + CO
mass density [kg/m3]
Details | 278.15 K | 288.15 K | 298.15 K | 308.15 K | 318.15 K
x2 = 0.0511 | 1394.5 | 1385.9 | 1377.5 | 1369 | 1360.7
x2 = 0.1016 | 1387.5 | 1379 | – | 1362 | 1353.7
x2 = 0.1557 | 1379.2 | 1370.7 | – | 1353.7 | 1345.3
x2 = 0.2035 | – | – | 1354.4 | 1345.9 | 1337.5
x2 = 0.3006 | 1353.2 | – | 1335.9 | 1327.4 | 1318.9
x2 = 0.3988 | 1330.4 | – | 1313 | 1304.4 | 1295.9
x2 = 0.5074 | 1298.4 | – | – | 1272.2 | 1263.5
x2 = 0.5993 | 1262.7 | 1253.9 | 1245.1 | 1236.3 | 1227.6
x2 = 0.6995 | 1210.8 | 1201.8 | 1192.9 | – | 1175.2
x2 = 0.8001 | 1135.3 | 1126.2 | 1117.2 | – | 1099.3
x2 = 0.8498 | 1084.1 | 1075 | 1065.9 | 1056.8 | 1047.7
x2 = 0.8995 | 1018.2 | 1009 | 999.8 | 990.6 | 981.4
x2 = 0.9495 | – | 921.1 | – | – | 893.3

CC[n+]1ccn(C)c1.O=S(=O)([O-])C(F)(F)F + CCO
mass density [kg/m3]
Details | 278.15 K | 288.15 K | 298.15 K | 308.15 K | 318.15 K | 328.15 K
x2 = 0.0508 | 1391.4 | 1382.9 | 1374.4 | 1366 | 1357.7 | 1349.4
x2 = 0.0983 | – | – | 1365 | 1356.6 | – | 1340
x2 = 0.1483 | 1371.2 | 1362.7 | – | 1345.8 | 1337.4 | 1329.1
x2 = 0.198 | – | 1351.2 | – | – | – | –
x2 = 0.3072 | 1331.1 | – | – | – | 1297.1 | –
x2 = 0.4068 | 1299.4 | 1290.8 | 1282.3 | 1273.8 | 1265.3 | 1256.9
x2 = 0.4985 | 1264.2 | 1255.5 | 1247 | 1238.4 | – | –
x2 = 0.5999 | 1216.2 | – | 1198.9 | 1190.3 | – | 1173.3
x2 = 0.6991 | – | 1147.8 | 1139.1 | 1130.5 | 1121.9 | 1113.3
x2 = 0.8001 | – | – | 1058.5 | 1049.8 | 1041.1 | 1032.4
x2 = 0.8497 | 1025.8 | 1017.1 | 1008.5 | – | 991.1 | 982.3
x2 = 0.9 | 965.6 | 957 | – | – | 930.9 | –
x2 = 0.9501 | 892.8 | 884.3 | 875.7 | 867 | 858.3 | 849.4

CC[n+]1ccn(C)c1.O=S(=O)([O-])C(F)(F)F + O
mass density [kg/m3]
Details | 278.15 K | 288.15 K | 298.15 K | 308.15 K | 318.15 K | 328.15 K | 338.15 K
x1 = 0.0178 | 1065.4 | 1062.6 | 1058.9 | 1054.4 | – | 1043.7 | 1037.5
x2 = 0.0502 | 1398.1 | 1389.6 | 1381.2 | 1372.8 | 1364.4 | 1356.1 | –
x2 = 0.1058 | 1395.4 | 1386.9 | – | – | – | – | 1345.2
x2 = 0.1504 | 1393 | – | 1376 | 1367.6 | 1359.3 | – | 1342.7
x2 = 0.249 | – | 1378.8 | 1370.4 | 1362 | 1353.6 | 1345.2 | 1337
x2 = 0.3004 | 1383.9 | 1375.4 | 1366.9 | 1358.5 | – | – | –
x2 = 0.3524 | – | 1371.4 | 1362.9 | 1354.5 | 1346 | – | 1329.3
x2 = 0.3961 | – | 1367.5 | 1359 | – | 1342.1 | 1333.7 | 1325.3
x2 = 0.4505 | 1370.6 | 1362.1 | – | 1345.1 | 1336.7 | 1328.2 | 1319.8
x2 = 0.5024 | 1364.7 | – | 1347.7 | – | 1330.7 | 1322.2 | 1313.8
x2 = 0.5502 | 1358.2 | 1349.6 | 1341.1 | 1332.6 | 1324.1 | – | –
x2 = 0.6 | – | 1341.7 | 1333.2 | 1324.7 | – | 1307.6 | 1299
x2 = 0.6502 | 1340.3 | 1331.8 | 1323.4 | 1314.8 | 1306.3 | 1297.7 | 1289.1
x2 = 0.702 | 1327.9 | 1319.5 | 1311 | – | – | 1285.3 | 1276.7
x2 = 0.7493 | 1312.9 | 1304.6 | 1296.2 | – | 1279.2 | 1270.6 | 1261.9
x2 = 0.7998 | – | – | 1275.8 | 1267.5 | 1259.1 | 1250.5 | 1241.8
x2 = 0.8499 | 1262.9 | 1255.2 | 1247.3 | 1239.2 | 1231 | 1222.6 | –
x2 = 0.8996 | – | 1212 | – | 1197.2 | – | 1181.5 | 1173.2
x2 = 0.9498 | – | 1141 | 1135.2 | 1129 | 1122.4 | 1115.2 | 1107.9

CC[n+]1ccn(C)c1.O=S(=O)([O-])C(F)(F)F + CCCO
mass density [kg/m3]
Details | 278.15 K | 288.15 K | 298.15 K | 308.15 K | 318.15 K | 328.15 K | 338.15 K
x2 = 0.049 | 1389.1 | 1380.6 | 1372.2 | 1363.8 | – | 1347.2 | 1339
x2 = 0.1095 | 1373.9 | 1365.4 | 1356.9 | – | 1340.2 | – | 1323.7
x2 = 0.1497 | 1363.1 | 1354.6 | 1346.1 | 1337.7 | 1329.4 | – | 1312.9
x2 = 0.2004 | 1348.6 | 1340.1 | – | – | 1314.9 | 1306.7 | 1298.5
x2 = 0.3 | 1317 | 1308.5 | 1300 | 1291.6 | 1283.3 | 1275 | 1266.8
x2 = 0.3993 | – | 1271.8 | 1263.4 | 1255 | 1246.7 | 1238.4 | 1230.2
x2 = 0.499 | 1237.2 | 1228.7 | 1220.2 | 1211.8 | 1203.5 | 1195.2 | 1186.9
x2 = 0.6007 | 1184.6 | 1176.2 | 1167.7 | 1159.3 | – | 1142.6 | 1134.3
x2 = 0.6998 | 1122.4 | – | 1105.5 | – | 1088.8 | 1080.4 | 1072
x2 = 0.7996 | 1044.8 | – | 1028.1 | 1019.8 | 1011.4 | 1002.9 | 994.5
x2 = 0.8496 | 998.6 | 990.4 | 982.1 | 973.8 | 965.4 | 957 | 948.5
x2 = 0.8999 | 946.2 | 938 | 929.8 | 921.6 | 913.2 | 904.8 | –
x2 = 0.9499 | 885.8 | 877.8 | 869.7 | – | – | – | 836.2
